The results in this text go back to publication PMC4336329 (PLoS ONE, 2015).

Screen size: about 310,000 compounds; about 14,000 (4.5%) showed an effect of 50% or more. Effects have a minus sign here. The list shows a part of the results.
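Also: peak tail current of the secondary pulse compared with the same well before compound.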

The target of this experiment is human ether-à-go-go-related gene (hERG) potassium channel (human, UniProt Q12809). As to the kind of experiment: primary screen, population patch clamp on CHO cells stably expressing hERG.
human ether-à-go-go-related gene (hERG) potassium channel, sequence (Q12809 whole entry, looked up): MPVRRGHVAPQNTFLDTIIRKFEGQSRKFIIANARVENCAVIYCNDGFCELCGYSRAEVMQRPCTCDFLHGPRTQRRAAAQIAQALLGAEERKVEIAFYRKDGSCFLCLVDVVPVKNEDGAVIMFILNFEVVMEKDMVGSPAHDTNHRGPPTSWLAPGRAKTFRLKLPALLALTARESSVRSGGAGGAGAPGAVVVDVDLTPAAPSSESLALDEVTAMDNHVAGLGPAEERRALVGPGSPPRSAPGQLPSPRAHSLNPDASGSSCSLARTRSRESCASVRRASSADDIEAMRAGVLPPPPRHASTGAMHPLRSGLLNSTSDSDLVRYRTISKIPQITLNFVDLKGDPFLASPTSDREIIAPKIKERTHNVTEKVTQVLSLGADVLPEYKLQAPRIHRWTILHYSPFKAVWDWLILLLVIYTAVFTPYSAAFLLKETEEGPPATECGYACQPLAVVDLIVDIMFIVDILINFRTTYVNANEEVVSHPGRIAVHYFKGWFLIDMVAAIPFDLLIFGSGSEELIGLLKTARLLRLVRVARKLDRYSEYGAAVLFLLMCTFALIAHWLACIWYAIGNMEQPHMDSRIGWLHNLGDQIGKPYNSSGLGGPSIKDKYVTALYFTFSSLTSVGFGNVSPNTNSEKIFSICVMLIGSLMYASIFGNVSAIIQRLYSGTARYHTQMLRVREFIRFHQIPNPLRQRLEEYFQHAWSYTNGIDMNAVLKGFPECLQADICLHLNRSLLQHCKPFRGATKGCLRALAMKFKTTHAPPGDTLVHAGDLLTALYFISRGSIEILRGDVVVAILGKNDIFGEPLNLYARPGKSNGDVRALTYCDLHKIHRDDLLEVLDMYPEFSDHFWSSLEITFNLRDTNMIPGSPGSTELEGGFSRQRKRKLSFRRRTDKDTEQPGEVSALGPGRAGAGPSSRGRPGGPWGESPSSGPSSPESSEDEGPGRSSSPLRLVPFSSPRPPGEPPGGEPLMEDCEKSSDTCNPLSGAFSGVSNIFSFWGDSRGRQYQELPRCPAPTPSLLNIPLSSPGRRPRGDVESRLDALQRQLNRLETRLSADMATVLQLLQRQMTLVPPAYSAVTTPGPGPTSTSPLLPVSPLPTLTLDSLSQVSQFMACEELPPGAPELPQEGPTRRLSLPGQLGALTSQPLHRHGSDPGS
As for `O=C(NC1CCCC1)c1cc(-c2ccccc2O)on1`, the “hERG current change (%, negative = inhibition) at 10uM” value came out at 12.2%. With `COc1ccccc1-c1nnc2n1N=C(C)CS2`, the “hERG current change (%, negative = inhibition) at 10uM” value was determined as 0.183%. Next, `CCN1C(=O)c2ccccc2S(=O)(=O)c2ccc(C(=O)NCc3cccnc3)cc21`: -8.75%. Next, `COCCNC(=O)C(NC(=O)C1CCCCC1)C12CC3CC(CC(C3)C1)C2` (centres unmarked): -8.46%; `CC(=O)O[C@@]12CO[C@@H]1C[C@H](O)[C@@]1(C)C(=O)[C@H](O)C3=C(C)[C@@H](O)C[C@@](O)([C@@H](OC(=O)c4ccccc4)C12)C3(C)C` (some centres unmarked): -4.87%; `CC(C)C[C@H](NC(=O)OC(C)(C)C)c1nnc(SCc2cccc(F)c2)o1`: -21.9%. As for `Cc1cc(=O)[nH]c(Nc2cccc(Cl)c2C)n1`, the “hERG current change (%, negative = inhibition) at 10uM” value is reported as 6.46%.

In the case of `CCn1c(CN2CCN(C(=O)c3ccco3)CC2)nc2c1c(=O)n(C)c(=O)n2C`, the “hERG current change (%, negative = inhibition) at 10uM” value is -16.4%. As to `O=C(Nc1ccccn1)c1ccc(S(=O)(=O)N2CCCCCC2)cc1`, the “hERG current change (%, negative = inhibition) at 10uM” value is -7.4%.

Turning to `Cc1cc2cc(C(c3nnnn3Cc3ccco3)N3CCc4ccccc4C3)c(=O)[nH]c2cc1C` (centres unmarked), the “hERG current change (%, negative = inhibition) at 10uM” value is on record as 1.81%.

Consider `COc1ccc(N2CCN(C(=O)COC(=O)c3oc4ccc(OC)cc4c3C)CC2)cc1`, for which the “hERG current change (%, negative = inhibition) at 10uM” value is -13.5%. Then `CC(C)(C)NC(=O)NC(=O)COC(=O)CCC1CCCCC1`, with 13.1%; and `CCCC(C)NCC(=O)Nc1ccccc1-c1ccccc1.O=C(O)C(=O)O` (centres unmarked), with -21.5%. `O=C(Nc1cccnc1)c1ccccc1-c1ccccc1`: the “hERG current change (%, negative = inhibition) at 10uM” value is 19.7%. Then `O=C(NCc1ccc(Cl)cc1)c1cnn2ccccc12`, with -9.93%; and `O=C(Nc1ccc2c(c1)OCCO2)c1ccc(S(=O)(=O)N2CCCCC2)cc1`, with 4.38%; and `CCOc1ccc(NS(=O)(=O)c2ccc3c(c2)N(C(C)=O)CCS3)cc1`, with 1.24%. For the compound `COCCCn1c(C(=O)NCCN2CCOCC2)cc2c(=O)n3cccc(C)c3nc21`, the “hERG current change (%, negative = inhibition) at 10uM” value is -9.21%. `O=C(Nc1nnc(-c2ccccc2)s1)c1ccc(F)cc1`: the “hERG current change (%, negative = inhibition) at 10uM” value is listed as 12.8%. In the case of `Cc1c(C(=O)Nc2ccccc2)sc2nc3n(c(=O)c12)CCCCC3`, the “hERG current change (%, negative = inhibition) at 10uM” value worked out at 7.75%.

Take `NC(=O)NOCc1ccc(Cl)cc1Cl`: the “hERG current change (%, negative = inhibition) at 10uM” value worked out at 6.25%. `CCC(CC)c1nnc(NC(=O)Cc2cccs2)s1`: the “hERG current change (%, negative = inhibition) at 10uM” value is -0.367%. Turning to `Cc1ccc(NC(=S)NC2CCSc3ccccc32)cc1C` (centres unmarked), the “hERG current change (%, negative = inhibition) at 10uM” value was found to be 8.04%. For the compound `O=C(CN(Cc1ccc(F)cc1)C(=O)CCC(=O)Nc1nccs1)NCc1ccc(F)cc1`, the “hERG current change (%, negative = inhibition) at 10uM” value is reported as -50.5%. For `CCOC(=O)C1CCN(S(=O)(=O)c2cn(C)cn2)CC1`, the “hERG current change (%, negative = inhibition) at 10uM” value stood at 18.7%. In the case of `O=[N+]([O-])c1cc([N+](=O)[O-])c(Oc2c(F)cc(F)cc2F)cc1NN1CCCCC1`, the “hERG current change (%, negative = inhibition) at 10uM” value turned out to be 6.2%. On to `Cc1ccc(C(c2nnnn2Cc2ccccc2)N2CCN(Cc3ccccc3)CC2)cc1` (centres unmarked), for which the “hERG current change (%, negative = inhibition) at 10uM” value is -79%.

`Cn1cc(Cl)c(-c2n[nH]c(=S)n2-c2ccccc2)n1`: the “hERG current change (%, negative = inhibition) at 10uM” value was found to be 21.1%. With `COc1cc(/C=C/C(=O)c2ccc(O)cc2)ccc1OCC#N`, the “hERG current change (%, negative = inhibition) at 10uM” value is reported as -32.6%. With `O=C(NC1(C(=O)NC2CCCCC2)CCCCC1)c1ccccn1`, the “hERG current change (%, negative = inhibition) at 10uM” value came out at 2.56%. Regarding `Cc1ncc(CSc2nnnn2-c2ccccc2)c(N)n1`, the “hERG current change (%, negative = inhibition) at 10uM” value was 1.69%. Then `CCOC(=O)c1cc(OC(=O)c2ccccc2Br)n(-c2ccccc2)n1`, with -19.4%; and `CN(C)c1nc(NCc2ccccc2)nc(SCC(=O)Nc2ccccc2)n1`, with 9.98%. With `CC1=Nc2cc(C(=O)NCCCOC(C)C)ccc2Sc2ccc(C)cc21`, the “hERG current change (%, negative = inhibition) at 10uM” value is recorded as -4.97%. On to `Cc1c(C(=O)Nc2cc(F)cc(F)c2)cnn1-c1ccccc1`, for which the “hERG current change (%, negative = inhibition) at 10uM” value was found to be 8.28%. Regarding `O=C(Nc1nc2ccccc2s1)c1ccc(Cl)s1`, the “hERG current change (%, negative = inhibition) at 10uM” value came out at 1.46%.

`Cc1nc(SCC(=O)Nc2ccc3c(c2)OCCO3)nc(C)c1C`: the “hERG current change (%, negative = inhibition) at 10uM” value came out at 22%. Then `CCC(CC)N=C1NS(=O)(=O)c2cc([N+](=O)[O-])ccc21`, with 2.05%; and `COc1cccc(Nc2ccc(C(=O)O)cc2[N+](=O)[O-])c1`, with 18.2%; and `CCOC(=O)N1CCN(CC(=O)c2ccc(O)cc2O)CC1`, with 11.9%.

As for `COc1cccc(CN2CCN(C(=O)c3ccc(-c4ccccc4)cc3)CC2)c1`, the “hERG current change (%, negative = inhibition) at 10uM” value was -38.3%. For `CCOC(=O)Cn1cc(C(=O)C(C)(C)C)c2ccccc21`, the “hERG current change (%, negative = inhibition) at 10uM” value amounted to 4.24%. Then `COc1ccccc1N1C(=O)CC(N(O)c2ccccc2)C1=O` (centres unmarked), with 23.6%; and `O=C(NCC(=O)N1CCCCC1)c1ccc(Br)o1`, with 10.2%.

With `Cc1n[nH]c(C)c1S(=O)(=O)N1CCCC(C(=O)NCc2cccs2)C1` (centres unmarked), the “hERG current change (%, negative = inhibition) at 10uM” value is reported as -4.66%. Take `COc1cccc(C(=O)COc2ccccc2-c2ccccc2)c1`: the “hERG current change (%, negative = inhibition) at 10uM” value was 2.6%. For the compound `O=C1Nc2cc(C(=O)NCCCN3CCCC3)ccc2S/C1=C/c1ccccc1F`, the “hERG current change (%, negative = inhibition) at 10uM” value is -69.5%. `c1cc(-n2cnnn2)ccc1NC1=NCCC1`: the “hERG current change (%, negative = inhibition) at 10uM” value turned out to be 9.28%. In the case of `COc1ccc(NC(=O)Cn2nc3n(c2=S)CCC3)cc1`, the “hERG current change (%, negative = inhibition) at 10uM” value turned out to be 9.8%. Then `COc1ccc(NC(=O)C2CCCN(c3c4c(nc5ncnn35)CCC4)C2)cc1OC` (centres unmarked), with -11.7%; and `Nc1c(-c2ccc(Cl)cc2)cnc2ncnn12`, with -8.92%; and `Cc1cc(C)cc(NC(=O)c2cc3c(=O)n4ccccc4nc3s2)c1`, with -4.98%. Turning to `COc1cccc(-c2csc(N3CCN(C(=S)Nc4cccc(Cl)c4)CC3)n2)c1`, the “hERG current change (%, negative = inhibition) at 10uM” value is given as 14.6%. Next, `COc1ccc(CC(=O)NNS(=O)(=O)c2ccccc2)cc1OC`: 29.9%; `Cc1cccc(-c2cc(C(=O)Nc3c(C)n(C)n(-c4ccccc4)c3=O)c3ccccc3n2)c1`: -21.9%.

For `Cc1c(NC(=O)c2coc(=O)c(Br)c2)c(=O)n(-c2ccccc2)n1C`, the “hERG current change (%, negative = inhibition) at 10uM” value is reported as -1.63%. Next, `O=C(O)c1ccc(Sc2nnc3ccccn23)c([N+](=O)[O-])c1`: 34.1%. Next, `O=C(Cc1ccc(Br)cc1)N(Cc1ccccc1)c1ccccn1`: -40.3%; `COc1ccccc1OCCNC(=O)c1ccc(C)o1`: 1.12%.

Regarding `C(=Nc1ccc(Nc2ccccc2)cc1)c1ccc2ccccc2c1`, the “hERG current change (%, negative = inhibition) at 10uM” value was 13.2%. Regarding `COc1ccc(CCNC(=O)c2oc3ccc(OC)cc3c2C)cc1`, the “hERG current change (%, negative = inhibition) at 10uM” value was 6.73%. `COc1ccc(CCN(C)C/C=C/c2ccccc2[N+](=O)[O-])cc1OC`: the “hERG current change (%, negative = inhibition) at 10uM” value is recorded as -70.8%. With `CCCCN1C(=O)/C(=C2\SC(N3CCOCC3)=NC2=O)c2ccccc21`, the “hERG current change (%, negative = inhibition) at 10uM” value was determined as 10.5%. Then `CCc1ccc(C(=O)Nc2ccc3c(c2)n(C)c(=O)n3C)cc1`, with -48.4%; and `CCOC(=O)Cc1csc(SCC(=O)N2CCN(c3ccc(OC)cc3)CC2)n1`, with -27.7%; and `COc1ccc(-n2c(C)n[nH]c2=O)cc1`, with 9.11%. Then `COc1ccccc1-n1c(C)nc(=O)c(-c2ccccc2)c1C`, with 16.8%; and `Cc1ccc(C)c(C(=O)NC2CC(C)(C)NC(C)(C)C2)c1`, with 14.4%. For the compound `CC(C)[C@H](NS(=O)(=O)c1cccc(Cl)c1)C(=O)OCC(=O)N1CCN(c2ccccc2)CC1`, the “hERG current change (%, negative = inhibition) at 10uM” value is recorded as -26.7%. Turning to `CCOC(=O)c1sc(NC(=O)CSC(=S)N2CCN(C)CC2)nc1C`, the “hERG current change (%, negative = inhibition) at 10uM” value is -39.8%. For `COc1ccc(-c2ccc(-c3noc(-c4ccccc4C)n3)c(OC)n2)cc1`, the “hERG current change (%, negative = inhibition) at 10uM” value was 6.35%. `COc1ccccc1C(=O)NCC(=O)Nc1ccccc1`: the “hERG current change (%, negative = inhibition) at 10uM” value is given as 5.97%. In the case of `O=C(NCCN1CCCC1)c1cc(-c2ccncc2)nc2ccc(S(=O)(=O)N3CCOCC3)cc12`, the “hERG current change (%, negative = inhibition) at 10uM” value is 3.31%. Then `CCOc1cc(C(=O)N2CCC3(CC2)OCCO3)cc(OCC)c1OCC`, with -12.5%. `CCc1ccc(C(=O)COC(=O)CNC(=O)COc2ccccc2)cc1`: the “hERG current change (%, negative = inhibition) at 10uM” value is -57.4%.

Regarding `Cc1cc(C)nc(SC2CC(=O)N(c3ccc(C)c(C)c3)C2=O)n1` (centres unmarked), the “hERG current change (%, negative = inhibition) at 10uM” value was determined as 5.84%. For the compound `O=C(NCc1ccc(Cl)cc1)C1CCN(C(=O)c2ccco2)CC1`, the “hERG current change (%, negative = inhibition) at 10uM” value is -41.4%. As to `O=C(NCCCn1ccnc1)C(=O)NCC1OCCN1S(=O)(=O)c1ccc(Cl)cc1` (centres unmarked), the “hERG current change (%, negative = inhibition) at 10uM” value came to 19%. For the compound `CSc1ccc(/C=C2\C(=N)N3N=C(CC(=O)N4CCOCC4)SC3=NC2=O)cc1`, the “hERG current change (%, negative = inhibition) at 10uM” value came to 14.2%.

On to `Cc1cccc(NC(=O)CC2NCCNC2=O)c1` (centres unmarked), for which the “hERG current change (%, negative = inhibition) at 10uM” value is 8.94%. Take `COc1ccc(N2CCN(Cc3nnnn3C3CCCCC3)CC2)cc1`: the “hERG current change (%, negative = inhibition) at 10uM” value is 6.34%. For the compound `O=C(Nc1cccc(NC(=O)c2ccco2)c1)c1ccc2c(c1)OCCO2`, the “hERG current change (%, negative = inhibition) at 10uM” value is reported as -20.6%. With `CN(C)c1ccc(/C=C/C(O)=C2/C(=O)N(C)C3(C)CC2c2ccccc2O3)cc1` (centres unmarked), the “hERG current change (%, negative = inhibition) at 10uM” value came out at 18%. Next, `CCn1cc(S(=O)(=O)CC(=O)Nc2ccc3c(c2)OCCO3)c2ccccc21`: -13.1%.

In the case of `c1ccc2c(c1)ccc1nnnn12`, the “hERG current change (%, negative = inhibition) at 10uM” value is reported as 9.57%. Next, `CCOc1ccc(N(CC(=O)NC(C)(C)C)C(=O)CCC(=O)Nc2nccs2)cc1`: 0.211%; `COc1ccc(-c2nc3ccc(C)cc3c(=O)o2)cc1OC`: 9.21%. On to `O=S(=O)(c1ccccc1)c1nc(Cc2ccccc2)oc1N1CCOCC1`, for which the “hERG current change (%, negative = inhibition) at 10uM” value was found to be 19.1%. For the compound `Cc1cc2cc(CNC(=O)CC(C)C)ccc2n1C`, the “hERG current change (%, negative = inhibition) at 10uM” value was 5.18%.
